# Residue numbers refer to the chain shown, from its start. In names and notes the source's numbering stands. Entries after “also recorded” stand apart in the source; their conditions may differ.
# B1: PSI0257: recombinant C5 binding polypeptide produced in accordance with the methods of Example 2 (protein)
# chain: AEAKYAKEVLEAWDEIDRLPNLTIEQWLAFINKLDDDPSQSSELLSEAKKLNDSQAPKVDGS
# modifications: Modified bacterial sequence
# B2: PSI0379: C5 binding compound derived from PSI0242 with substitutions N52S, D53E and D60A (protein)
# chain: AEAKYAKEVLEAWDEIDRLPNLTIEQWLAFINKLDDDPSQSSELLSEAKKLSESQAPKVAGSLAEAKEAANAELDSYGVSDFYKRLIDKAKTVEGVEALKDAILAALP
# modifications: Modified bacterial sequence
# B3: PSI0403: C5 binding compound derived from PSI0242 with substitutions D53E and D60E (protein)
# chain: B2 chain with S52N, A60E
# modifications: Modified bacterial sequence
# B4: PSI0404: C5 binding compound derived from PSI0242 with substitutions N52S and D60E (protein)
# chain: B2 chain with E53D, A60E
# modifications: Modified bacterial sequence
# B5: PSI0334: modified C5 binding compound, positions 52-53 substituted from ND to SE, X60 is D (protein)
# chain: B2 chain with A60D
# modifications: Modified bacterial sequence
# B6: PSI0381: C5 binding compound derived from PSI0242 with substitutions N52E, D53S and D60E (protein)
# chain: B2 chain with S52E, E53S, A60E
# modifications: Modified bacterial sequence
# B7: PSI0242: known C5 binding compound of WO 2013/126006: polypeptide Z06175a (positions 1-60) with an albumin binding domain (protein)
# chain: B2 chain with S52N, E53D, A60D
# modifications: Modified bacterial sequence
# B8: PSI0340: modified C5 binding compound (protein)
# chain: B2 chain with D35E, S52N, E53D, A60D
# modifications: Modified bacterial sequence
# B9: PSI0369: C5 binding compound in which D60 and the entire linking moiety is absent (protein)
# chain: AEAKYAKEVLEAWDEIDRLPNLTIEQWLAFINKLDDDPSQSSELLSEAKKLNDSQAPLAEAKEAANAELDSYGVSDFYKRLIDKAKTVEGVEALKDAILAALP
# modifications: Modified bacterial sequence
# B10: PSI0337: modified C5 binding compound (protein)
# chain: B2 chain with D17E, S52N, E53D, A60D
# modifications: Modified bacterial sequence
# B11: PSI0339: modified C5 binding compound (protein)
# chain: B2 chain with N32A, S52N, E53D, A60D
# modifications: Modified bacterial sequence
# B12: PSI0332: modified C5 binding compound with amino acid substitutions in the loop [L2] (protein)
# chain: B2 chain with D36R, D37Q, S39E, S52N, E53D, A60D
# modifications: Modified bacterial sequence
# B13: PSI0335: modified C5 binding compound (protein)
# chain: B2 chain with S52N, E53D, A60D, E68V, A69L, A72R, S76K, D88N, D101L, A102H
# modifications: Modified bacterial sequence
# B14: PSI0336: modified C5 binding compound (protein)
# chain: B2 chain with D14S, S52N, E53D, A60D
# modifications: Modified bacterial sequence
# System: not listed separately
# Assay: Far UV circular dichroism, secondary structure content estimated with CDNN
# Type: physicochemical
# Settings: 0.17 mg/ml in Pi buffer pH 7.0
# Description: The CD spectra were recorded by a J-720 CD spectropolarimeter (Jasco, Japan). The samples were diluted to 0.17 mg/ml protein concentration using Pi buffer (5 mM Na—K—PO4, pH 7.0). A CD spectrum of Pi buffer was firstly recorded, then spectra were recorded for each of the samples and lastly for the Pi buffer again. […] The buffer spectrum was smoothened using the Savitzky-Golay procedure with convolution width of 25. The other spectra were smoothened according to the same procedure with a convolution width of 15. The smoothened buffer spectrum was then subtracted from each of the other smoothened spectra. […] The integrity of the secondary structure content was compared to the recombinantly produced PSI0257 (SEQ ID NO: 271).
Molecule,Antiparallel [%],Beta-Turn [%],Helix [%],Parallel [%],Rndm. Coil [%]
B1,3,13,63,3,13

# System: not listed separately
# Assay: 3 month stability test at 37° C., RPC
# Type: physicochemical
# Settings: not given
# Source text: The 2 weeks data from example 2 is included in Table VIII below to make the interpretation easier.
Molecule,"3 months, 37° C. Main peak (% of total protein)",proportion of protein in the original form after 3 months at 37° C. versus PSI0242 after 2 weeks
B2,58 % of total protein,higher proportion of protein in the original form

# Same assay, conditions: RPC, 3 months, 37° C.
row,Molecule,"3 months, 37° C. Main peak (% of total protein)"
1,B3,35 % of total protein
2,B4,46 % of total protein
3,B5,16 % of total protein
4,B6,46 % of total protein

# Target: T1, recombinant human albumin (Homo sapiens, UniProt P02768)
# T1 construct: purchased Novozymes
# Assay: Human albumin ELISA
# Type: binding
# Settings: quantified against PSI0242 standard
# Source text: For assessment of C5 binding compounds binding affinity for albumin, a human albumin ELISA utilizing recombinant human albumin (coating) and commercially available antibodies (primary and detecting) purchased from Novozymes, Affibody AB and DakoCytomation, respectively, was used. A method standard prepared from PSI0242 (SEQ ID NO:249), comprising a C5 binding polypeptide and an albumin binding domain of streptococcal protein G, was used for quantification of samples. A 96-well microplate was coated with recombinant human albumin. The plate was then washed with phosphate buffered saline containing 0.05 Tween 20 (PBST) and blocked for 1-2 hours with 1% casein in PBS. After a plate wash, the standard, method controls, control sample and test samples are added to the plate. After incubation for 2 hours, unbound material was removed by a wash. A goat Anti-AFFIBODY IgG (Affibody AB, cat no. 20.1000.01.0005) was added to the wells and the plate was incubated for 1.5 hours to allow binding to the bound C5 binding compounds. After a wash, rabbit anti-goat IgG HRP was allowed to bind to the goat antibodies for 1 h. After a final wash, the amount of bound HRP was detected by addition of TMB substrate, which was converted to a blue product by the enzyme. Addition of 1 M hydrochloric acid after 30 minutes stopped the reaction and the color of the well contents changed from blue to yellow. The absorbance at 450 nm was measured photometrically, using the absorbance at 650 nm as a reference wavelength. The color intensity was proportional to the amount of PSI0242 (SEQ ID NO:249) and the sample concentrations were determined from the standard curve.
row,Molecule,% of total protein content
1,B7,103 % of total protein content

# System: not listed separately
# Assay: Accelerated stability study, 2 weeks at 37° C., SDS-PAGE and Reversed Phase HPLC (RPC)
# Settings: not given
row,Molecule,"2 weeks, 37° C. Main peak (% of total protein)"
1,B2,88 % of total protein

# Same assay, conditions: 2 weeks at 37° C., conclusion in words
row,Molecule,stability when compared with PSI0242
1,B3,increased stability
2,B4,increased stability
3,B5,increased stability
4,B8,increased stability
5,B9,increased stability; also recorded: more stable
6,B6,increased stability

# Same assay, conditions: RPC after 2 weeks at 37° C., 25 mM NaP/125 mM NaCl pH 7.0
row,Molecule,Main peak (% of total protein)
1,B7,57 % of total protein
2,B3,77 % of total protein
3,B4,88 % of total protein
4,B5,73 % of total protein
5,B8,67 % of total protein
6,B9,90 % of total protein
7,B6,87 % of total protein
8,B10,57 % of total protein
9,B11,57 % of total protein
10,B12,57 % of total protein
11,B13,57 % of total protein
12,B14,57 % of total protein

# Same assay, conditions: RPC, 2 weeks, 37° C.; data from example 2
row,Molecule,"2 weeks, 37° C. Main peak (% of total protein)"
1,B3,77 % of total protein
2,B4,88 % of total protein
3,B5,73 % of total protein
4,B6,87 % of total protein

# Same assay, conditions: after 2 weeks at 37° C., 25 mM NaP/125 mM NaCl pH 7.0
Molecule,RPC prepeaks,SDS-PAGE bands,RPC post peaks
B7,2,2,–
B3,1,1,1
B4,1,1,0
B5,1,1,0
B8,2,2,1
B9,1,2,1
B6,0,1,0
B10,2,2,1
B11,2,2,1
B12,1,2,1
B13,2,2,1
B14,2,2,1

# Same assay, conditions: pH 7
Molecule,Main peak (% of total protein),RPC post peaks,RPC prepeaks,SDS-PAGE bands
B2,88 % of total protein,0,0,1

# From US9994626B2, “Stable polypeptides binding to human complement C5” (Swedish Orphan Biovitrum AB (publ), priority 2013, dated 2018)
